Assay results as given in PubChem BioAssay AID463173 (ICCB-Longwood Screening Facility, Harvard Medical School, 2010).
In all, about 52,000 compounds went through this assay and about 1,700 (3.3%) were called active. Cut-off read from the data, not from the text of the source: active = survival mostly below about 52% (no sharp cut-off); inactive = mostly above about 56%. The list shows a part of the results.

Test system: Wild type
Assay: S. aureus survival, RN4220 and DeltatarO strains – OD600, teichoic acid synthesis inhibitors, primary screen (AID 463173)
Conditions: S. aureus RN4220 wild type/DeltatarO growth, OD600, 18 h, active compounds read low, screened at 18.75 µg/mL (by protocol)

Row | Compound | survival
1 | CCc1cccc(N2C(=O)CSC23C(=O)Nc2ccccc23)c1 (stereo unspecified) | inactive: 77%
2 | O=C(CC(NCc1ccccc1)C(=O)O)NC1CCCCC1 (stereo unspecified) | inactive: 117%
3 | CC(C)Oc1ccc(Cc2cnc(=S)[nH]c2N)cc1 | inactive: 103%
4 | CCCN(C(=O)c1cc2c(=O)[nH]c3ccc(C)cc3c2s1)c1ccc(CC)cc1 | inactive: 63%
5 | CCOc1ccc(CNS(=O)(=O)c2ccc3c(c2)CCCN3C(C)=O)cc1OC | inactive: 93%
6 | CCOC(=O)N1CCN(Cc2ccccn2)CC1 | inactive: 101%
7 | CCc1nnc2c(N3CCN(c4cc(Cl)ccc4C)CC3)nc3ccccc3n12 | active: -6%
8 | CCOC(=O)C1CCCN(C(=O)c2nn(-c3ccc(C)cc3)c(=O)n(C)c2=O)C1 (stereo unspecified) | inactive: 83%
9 | COc1ccc(CC(=O)N2CCc3cc(OC)c(OC)cc3C2COc2ccc3c(C)cc(=O)oc3c2)cc1 (stereo unspecified) | inactive: 133%
10 | CC1CCN(C(=O)c2cc(-c3ccc(Br)cc3)on2)CC1 | inactive: 78%
11 | CCOc1ccc(NC(=O)CCNS(=O)(=O)c2cccc3nonc23)cc1 | inactive: 98%
12 | COc1ccc(C2=NC(c3ccncc3)=Nc3ccc(OC)cc3N2)cc1 | inactive: 111%
13 | COc1ccc(C2=C(C)C(=O)N(Cc3ccc(C(=O)NCc4cccc(C)c4)cc3)S2(=O)=O)cc1 | inactive: 117%
14 | COc1ccc2c(c1)c(N1CCCC1=O)c(C(=O)Nc1ccccc1C(F)(F)F)n2C | inactive: 88%
15 | COc1ccc(-c2noc(N3CCC(C(=O)N4CCN(c5cccc(C)c5C)CC4)CC3)n2)cc1 | inactive: 70%
16 | O=C1[C@@H]2CSC(c3ccc(Cl)cc3)N2C(=O)N1c1ccccc1 (stereo partly specified) | inactive: 79%
17 | CC(C)c1ccc(N2C(=O)CSC23C(=O)N(C)c2ccccc23)cc1 (stereo unspecified) | inactive: 71%
18 | COc1ccc(-c2noc(COc3cc(C)ccc3C)n2)cc1OC | active: 0%
19 | O=C(COc1ccc(F)cc1)Nc1ccc2nc(SCC(=O)N3CCOCC3)sc2c1 | inactive: 96%
20 | COc1cc2c(cc1OC)n(Cc1cccc(C(F)(F)F)c1)c(=O)n1nc(-c3ccccc3)nc21 | inactive: 108%
21 | O=C(Oc1cccc2cccnc12)c1ccccc1 | active: 1%
22 | Cc1cc(C)c(NC(=O)CN(C)S(=O)(=O)c2ccc3c(c2)CCC(=O)N3)c(C)c1 | inactive: 77%
23 | O=C1CCCc2cc(S(=O)(=O)N3CCCC(C(=O)NCc4ccccc4)C3)ccc2N1 (stereo unspecified) | inactive: 69%

Row | Compound | survival
24 | CC(=O)c1cccc(NC(=O)c2nc(-c3ccccc3)n(-c3ccccc3)n2)c1 | inactive: 93%
25 | COc1cccc(NC(=O)CCNS(=O)(=O)c2ccc3c(c2)oc(=O)n3C)c1 | inactive: 79%
26 | COc1ccc(CNC(=O)c2cc3c(=O)n(Cc4ccco4)ccc3nc2C)cc1 | inactive: 74%
27 | COc1nc(NCCO)nc(Nc2ccccc2F)n1 | inactive: 104%
28 | O=C(CSCn1nnc2c(=O)[nH]c(Cc3ccc(F)cc3)nc21)Nc1cccc(C(F)(F)F)c1 | inactive: 87%
29 | CC(=O)Nc1ccc(NC(=O)CCCn2nc(C)c3sc4ccccc4c3c2=O)cc1 | inactive: 86%
30 | CCOc1ccc(N(C)S(=O)(=O)c2ccc3c(c2)CCCN3C(C)=O)cc1 | inactive: 75%
31 | CCOc1ccc(NS(=O)(=O)c2cc3c(cc2Cl)NC(=O)CO3)cc1 | inactive: 94%
32 | Cc1cc(C)c(NC(=O)CCS(=O)(=O)c2cc3c(cc2Cl)NC(=O)CO3)c(C)c1 | inactive: 89%
33 | CCC(C)NC(=O)C1CCN(S(=O)(=O)c2ccc3c(c2)CCCN3C(C)=O)CC1 (stereo unspecified) | inactive: 60%
34 | CCn1cc(C(=O)N2CCN(c3ccc(C)cc3)C(C)C2)c(=O)c2cc(S(=O)(=O)N3CCCC3)ccc21 (stereo unspecified) | inactive: 84%
35 | CCc1ccccc1NC(=O)C(=O)NCCCN1CCOCC1 | inactive: 73%
36 | COc1cc2c(cc1OC)C(COc1cccc(C(F)(F)F)c1)N(C(=O)c1ccc(S(=O)(=O)N3CCCC3)cc1)CC2 (stereo unspecified) | inactive: 77%
37 | Cc1nc2ccc(S(=O)(=O)N(CC(=O)Nc3ccc(F)cc3F)Cc3ccccc3)cc2s1 | inactive: 88%
38 | CNC(=O)CCCN1C(=O)c2cccnc2Sc2ccccc21 | inactive: 82%
39 | CCOc1cc(C(=O)NCCc2sc(-c3ccc(F)cc3)nc2C)cc(OCC)c1OCC | inactive: 140%
40 | O=C(Cn1c(SCc2ccccc2F)nc2ccncc21)Nc1ccccc1C(F)(F)F | inactive: 44%
41 | Cc1ccc(S(=O)(=O)Nc2cccc(-c3cn4cccc(C)c4n3)c2)c(C)c1 | inactive: 51%
42 | O=C(Cn1c(=O)c2cccn2c2cccnc21)NCc1cccc(F)c1 | inactive: 85%
43 | CCOc1ccc(NC(=O)c2ccc3[nH]c(C)c(C)c3c2)cc1 | inactive: 113%
44 | O=C(Cn1ccc2cc(S(=O)(=O)N3CCCCC3)ccc21)NCCc1ccccc1Cl | active: -6%
45 | COc1ccccc1NC(=O)Cn1c(=O)n(Cc2ccccc2)c(=O)c2c1c1cc(C)ccc1n2C | inactive: 70%
46 | Cc1cccc(N2C(=O)c3cccc4c(N5CCNCC5)ccc(c34)C2=O)c1 | inactive: 87%

Row | Compound | survival
47 | Cc1ccccc1NC(=O)Cn1cc(C(=O)c2cccs2)c2ccccc21 | inactive: 102%
48 | CCc1ccc(NC(=O)CSC2=Nc3ccccc3C3=NC(CCC(=O)NCc4ccccc4)C(=O)N23)cc1 (stereo unspecified) | inactive: 124%
49 | CCCCN(C)C(=O)c1cn(C)c2ccc(S(=O)(=O)N3CCC(C)CC3)cc2c1=O | inactive: 86%
50 | CC(SC12CC3CC(CC(C3)C1)C2)C(=O)O (stereo unspecified) | inactive: 121%
51 | CC(NC(=O)CSc1n[nH]c(-c2ccccc2Cl)n1)c1nc2ccccc2[nH]1 (stereo unspecified) | inactive: 75%
52 | COc1ccc(C(=O)CN2CCC(N3CCCCC3)CC2)cc1 | inactive: 106%
53 | Cc1ccsc1CN1CCc2nc(Nc3ccccc3)ncc2C1 | inactive: 55%
54 | CCCCC(=O)OC1=C(C(=O)c2ccccc2)N(CCC)S(=O)(=O)c2ccccc21 | inactive: 43%
55 | CC1=C(C(=O)Nc2cccc(Cl)c2C)C2(CCCCCC2)OC1=O | active: -2%
56 | CC1CCN(S(=O)(=O)c2ccc3c(c2)CCN3)CC1 | inactive: 135%
57 | O=C(c1cnn(-c2ccc(F)cc2)c1-n1cccc1)N1CCN(c2ccc(F)cc2)CC1 | inactive: 68%
58 | CCNc1nc(NCc2ccc(F)cc2)c2cnn(C)c2n1 | inactive: 94%
59 | COc1ccc(S(=O)(=O)N2CCN(S(=O)(=O)c3ccccc3)CC2)cc1 | inactive: 105%
60 | CCc1ccc(S(=O)(=O)c2nnn3c2nc(Nc2cc(OC)ccc2OC)c2sccc23)cc1 | inactive: 88%
61 | COc1ccccc1Nc1sc(C(=O)c2ccc(C)cc2C)c(N)c1S(=O)(=O)c1ccccc1 | inactive: 76%
62 | O=S(=O)(NCCS(=O)(=O)N1CCN(c2ccccc2)CC1)c1ccc(Br)cc1 | inactive: 77%
63 | COc1ccc(CC(=O)Nc2sc3c(c2C(=O)Nc2ccccc2)CCCCC3)cc1 | inactive: 103%
64 | O=C(NCC1CCCO1)C1CCCN1C(=O)Nc1ccc(Cl)cc1 (stereo unspecified) | inactive: 91%
65 | Cc1ccc(CCNC(=O)CS(=O)Cc2nc(-c3ccccc3Cl)oc2C)cc1 (stereo unspecified) | inactive: 72%
66 | Cc1c(C(=O)Nc2nc(-c3ccc(F)cc3)ns2)oc2ccc(Cl)cc12 | inactive: 83%
67 | COc1ccccc1C(=O)Nc1ccccc1OCc1cc(=O)n2ccccc2n1 | inactive: 92%
68 | N#CC(C#N)=C(N)/C(C#N)=C/c1ccco1 | inactive: 120%
69 | Cc1cc(NC(=O)c2ccc(Cl)c(Cl)c2)ccc1NC(=O)c1ccco1 | inactive: 95%

Row | Compound | survival
70 | O=C(Cc1ccccc1)Nc1sc2c(c1C(=O)Nc1ccc(Br)cc1)CCC2 | inactive: 77%
71 | Cc1ccc2oc(C(=O)Nc3cccc(Cl)c3)cc(=O)c2c1 | inactive: 111%
72 | O=C(NCCc1ccccc1)c1nc(-c2ccc(Cl)cc2)n2c1CCCCC2 | inactive: 72%
73 | CC1CCCCN1C(=O)c1cc(-c2ccccc2)on1 (stereo unspecified) | inactive: 126%
74 | O=C(Nc1ccc(F)cc1)c1csc2c1CCCCC2 | inactive: 68%
75 | COc1cccc(N2CC(NC(=O)c3ccc(S(=O)(=O)N4CCOCC4)cc3)CC2=O)c1 (stereo unspecified) | inactive: 121%
76 | COc1ccc(CNc2nc3c(-c4ccccc4)nnn3c3ccccc23)cc1 | inactive: 90%
77 | Cc1cc(C)cc(OCC(=O)Nc2c(C)ccc3nsnc23)c1 | inactive: 81%
78 | COc1ccc(S(=O)(=O)c2cnc3ccc(Cl)cc3c2N2CCCCC2C)cc1 (stereo unspecified) | inactive: 23%
79 | CC1CCCc2sc3nc(SCC(=O)c4ccc(Br)cc4)nc(N)c3c21 (stereo unspecified) | inactive: 66%
80 | CCN(CC)C(=O)CSc1nsc(SCC(=O)N(CC)CC)c1C#N | inactive: 102%
81 | Cc1ccccc1NC(=O)CSc1nc2nccnc2c(=O)n1CCc1c[nH]c2ccccc12 | inactive: 72%
82 | Cc1cccc(N2CCN(C(=O)Cn3nc(C)n4cccc4c3=O)CC2C)c1 (stereo unspecified) | inactive: 89%
83 | CN(Cc1ccccc1)S(=O)(=O)c1nnc(NC(=O)c2cccc(Cl)c2)s1 | active: -1%
84 | O=C(CSc1nnc(-c2cccc(F)c2)o1)N1c2ccccc2Sc2ccccc21 | inactive: 103%
85 | Cc1sc2nc(CN3CCN(C(=O)c4ccco4)CC3)n(C(=O)c3ccco3)c(=O)c2c1C | inactive: 116%
86 | Cc1nc(NCCNC(=O)c2cccs2)c2c3c(sc2n1)CCCC3 | inactive: 108%
87 | COc1ccc(NC(=O)CSc2nc(-c3ccco3)cc(C(F)(F)F)n2)cc1OC | inactive: 85%
88 | CCOc1ccc(N(CC)S(=O)(=O)c2cc(Br)cc3c2N(C(C)=O)C(C)C3)cc1 (stereo unspecified) | inactive: 68%
89 | Cc1cccc(NC(=O)CSc2nccn2Cc2ccc(F)cc2)c1C | inactive: 71%
90 | CCCCN(C)CCCNC(=O)Cn1ncc2c3ccccc3n(Cc3ccccc3)c2c1=O | inactive: 123%
91 | CCOC(=O)c1cc2c(nc1N)CC(C)(C)OC2 | inactive: 106%
